Source: PubChem BioAssay AID1347043 (National Center for Advancing Translational Sciences (NCATS), 2019)
Among all 76,000 compounds or so, about 1,900 (2.5%) were called active. This list was built around the results that the source calls inconclusive (neither active nor inactive); the mix of calls is not that of the screen. The call rests on the fitted dose curve; in most records, active means well fitted inhibition curve with a large enough effect; inconclusive means small, poorly fitted or top-dose-only effect; inactive means flat fitted curve, though single readings scatter. Potencies beside an inconclusive call are fits to weak or partial responses and may not hold up.

Biological target: Luciferin 4-monooxygenase (Photinus pyralis) (UniProt P08659)
UniProt P08659, sequence (P08659 whole entry, looked up): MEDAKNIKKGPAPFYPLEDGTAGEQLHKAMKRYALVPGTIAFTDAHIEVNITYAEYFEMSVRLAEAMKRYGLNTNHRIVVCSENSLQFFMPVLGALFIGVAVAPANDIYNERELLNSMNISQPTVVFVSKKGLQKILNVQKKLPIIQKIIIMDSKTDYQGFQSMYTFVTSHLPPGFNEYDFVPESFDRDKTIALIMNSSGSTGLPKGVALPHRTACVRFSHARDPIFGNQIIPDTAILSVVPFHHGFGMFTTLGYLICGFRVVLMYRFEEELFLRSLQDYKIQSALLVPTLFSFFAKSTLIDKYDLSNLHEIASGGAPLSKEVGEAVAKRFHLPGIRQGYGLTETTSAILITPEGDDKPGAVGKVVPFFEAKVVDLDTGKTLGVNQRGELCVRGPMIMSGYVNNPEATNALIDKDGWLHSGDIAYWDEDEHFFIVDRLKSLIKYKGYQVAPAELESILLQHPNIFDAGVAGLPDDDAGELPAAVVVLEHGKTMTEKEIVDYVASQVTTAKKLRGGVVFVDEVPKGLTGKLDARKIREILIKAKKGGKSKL
Experiment: Firefly luciferase inhibition profiling of diverse chemical library using quantitative high-throughput screening; further: nearly all actives have a fitted effect of over 65% in size
Settings: purified P. pyralis luciferase, luminescence, biochemical; activity change, negative = inhibition: at 115 µM (top of the series) unless noted
Method in brief: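 Luminescence read by CCD imaging after purified firefly luciferase (10nM final) was added to substrate buffer holding 10uM D-luciferin and 10uM ATP, pH 7.5, pre-dosed with compound.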
On the % scale 0 is the no-effect control and ±100 the full control effect; potency means the concentration at half of the fitted maximal effect; tags describe the fitted curve by direction and shape.

SMILES | Potency | activity change, negative = inhibition
COc1ccc(-c2ncc3c(n2)OCCN(Cc2ccccc2)C3=O)cn1 | active: 15.8 µM | 
CC(C)(C)C1CCC2(CC1)NC(=O)N(CC(=O)Nc1ccc3c(c1)OCCO3)C2=O (configuration not stated) | inconclusive: 39.8 µM [inhibitor, partial curve] | 
CS(=O)(=O)N[C@@H]1[C@@H](NC(=O)CCn2nnc3ccccc32)[C@H]2CCO[C@H]21 |  | inactive: -3.97%
O=C(CCn1ccn2nc3c(c2c1=O)CCCC3)Nc1ccc2c(c1)OCO2 | inconclusive: 39.8 µM [inhibitor, partial curve] | 
O=S(=O)(Cc1ccccc1)NC[C@H]1Cn2cc(-c3ccccc3)nc2CO1 | inconclusive: 89.1 µM [inhibitor, partial curve, poor fit] | 
O=C(Nc1ccc2c(c1)OCO2)C1CN(S(=O)(=O)c2cccnc2)CC12CCCCC2 (configuration not stated) | active: 39.8 µM | 
O=C(c1cc(F)ccc1F)N1CCCC(n2cc(-c3nc(-c4ccccc4)no3)nn2)C1 (configuration not stated) | inconclusive: 89.1 µM [inhibitor, single point] | 
Clc1ccc(Nc2ncc(-c3cccnc3)c3c2OCC3)cc1 | active: 5.01 µM | 
Cn1cc(CN2C[C@@H](F)[C@@H](OCc3nc4ncccc4[nH]3)C2)c2ccccc21 |  | inactive: -12.4% [at 172 µM]
Fc1ccccc1-c1nnc([C@H]2CCN(C3CCOCC3)C2)o1 | active: 70.8 µM | 
Cc1ccc(CNC(=O)C2CCN(C(=O)c3ncn4c3COC(c3ccccc3)C4)CC2)cc1 (configuration not stated) | active: 15.8 µM | 
O=C1c2cnc(-c3cc4ccccc4o3)nc2OCCN1Cc1ccccc1 | active: 0.1 µM | 
COc1ccc(-c2cn3c(n2)CO[C@@H](CNC(=O)C2CCCC2)C3)cc1 | active: 28.2 µM | 
COc1ccc(C(=O)Nc2cnc(-c3ccc(Cl)cc3)nc2)cc1 | inconclusive: 39.8 µM [inhibitor, partial curve] | 
CCOc1ccccc1CN1CCC2(CCN(C(=O)Nc3ccc(Cl)cc3)CC2)Oc2ccccc21 | inconclusive: 56.2 µM [inhibitor, partial curve] | 
CCc1noc(-c2nc(-c3cccc(F)c3)no2)n1 | active: 25.1 µM | 
Cn1nc(C(=O)N2CCc3nn(CC#N)c(=O)n3CC2)c2ccccc21 | inconclusive: 50.1 µM [inhibitor, partial curve] | 
COc1cc(OC)cc(C(=O)N2[C@@H]3CC[C@H]2CC(NC(=O)c2ccncc2)C3)c1 (some centres not stated) |  | inactive: -8.55%
Cc1noc(-c2cn(C3CCN(C(=O)c4cccc(N(C)C)c4)CC3)nn2)n1 | inconclusive: 50.1 µM [inhibitor, partial curve] | 
COc1ccc2cc(C3CN(C(=O)c4cccn4C)CCO3)ccc2c1 (configuration not stated) | active: 4.47 µM | 
O=C(N[C@@H]1CN(Cc2ccccc2F)C[C@H]1CO)c1ccccc1 |  | inactive: -12.6%
COc1cccc(CN2Cc3cc(NC(=O)c4cccc(OC)c4)ccc3OCC2=O)c1 | inconclusive: 44.7 µM [inhibitor, partial curve] | 
Cc1cccc(CN2CCCN(S(=O)(=O)c3cn(C)cn3)C(c3ccccc3)CC(=O)NCC2)c1 (configuration not stated) |  | inactive: -2.13%

SMILES | Potency | activity change, negative = inhibition
COC1C(=O)N(C2CCN(C(=O)c3cc4ccccc4[nH]3)CC2)C12CCOCC2 (configuration not stated) | inconclusive: 39.8 µM [inhibitor, partial curve] | 
CCN1c2cc(C(=O)Nc3ccc(C(C)C)cc3)ccc2C(=O)N2CCCCC21 (configuration not stated) | inconclusive: 7.94 µM [inhibitor, full curve, poor fit] | 
CC(=O)Nc1cccc(-c2cn(C)c(=O)n3cc(COc4ccc(Cl)cc4)nc23)c1 | inconclusive: 2.51 µM [inhibitor, full curve, poor fit] | 
O=C(NC[C@H]1COCc2nc3cc(F)ccc3n21)c1ccc2c(c1)OCO2 | inconclusive: 100 µM [inhibitor, partial curve, poor fit] | 
O=C(O)COc1ccc(-c2nccc3c2C(=O)N(Cc2c[nH]c4ccccc24)CC(COc2ccccc2F)O3)cc1 (configuration not stated) | inconclusive: 56.2 µM [inhibitor, partial curve] | 
CCc1ccc(NC(=O)c2ccc(Cn3ccn4nc5c(c4c3=O)CCCC5)cc2)cc1 | inconclusive: 39.8 µM [inhibitor, partial curve] | 
COCCn1c(C)cnc1CCNC(=O)COc1ccccc1 | inconclusive: 0.158 µM [inhibitor, full curve] | 
C=CCO[C@@H]1CCN2C(=O)c3cc(-c4ccc(OC)cc4)ccc3NC(=O)[C@H]12 | inconclusive: 79.4 µM [inhibitor, partial curve] | 
COc1ccc(-c2cc(N3CCCC(NC(=O)C4CCCCC4)C3)n[nH]2)cc1 (configuration not stated) | inconclusive: 17.8 µM [inhibitor, full curve, poor fit] | 
COc1ccc(NC(=O)N2C[C@@H]3C[C@H](C2)c2c(NC(=O)Nc4ccccc4)ccc(=O)n2C3)cc1 | inconclusive: 44.7 µM [inhibitor, partial curve] | 
O=C(Nc1ccc(Cl)cc1)N1CCn2c(nn(-c3ccc([N+](=O)[O-])cc3)c2=O)C1 | inconclusive: 31.6 µM [inhibitor, partial curve] | 
Cc1noc(-c2ccccc2Cl)c1C(=O)NCCCc1ccccc1 |  | inactive: 8.63%
COc1ccc(C(=O)Nc2ccc([C@H]3OCC(=O)N(Cc4nccn4C)[C@@H]3CO)cc2)cc1 | active: 39.8 µM | 
N#Cc1cccc(NC(=S)N[C@H]2CO[C@H]3[C@@H]2OC[C@@H]3n2cc(-c3ccccn3)nn2)c1 | inconclusive: 89.1 µM [inhibitor, partial curve] | 
CN(C)c1ccc(CN2CCC3(CC2)COc2ccccc2C(=O)N3)cc1 |  | inactive: 7.09%
Cc1cccc(C)c1-c1nc(C(=O)N2CCN(c3ncccn3)CC2)n2ccccc12 | inconclusive: 44.7 µM [inhibitor, partial curve] | 
COc1ccc(C(=O)N2CCCC(CO)CCNC(=O)CC2)cc1 (configuration not stated) |  | inactive: -1.08%
Cc1ccc(-c2nc(C(=O)N3CCN(c4ccccc4F)CC3)no2)cc1 | inconclusive: 44.7 µM [inhibitor, partial curve] | 
CCc1ccc(CNC(=O)C2CCN(C(=O)c3ncn4c3COC(c3ccc(F)cc3)C4)CC2)cc1 (configuration not stated) | inconclusive: 44.7 µM [inhibitor, partial curve] | 
C[C@H](C(=O)N(C)CCC#N)C1CC[C@@]2(C)Cc3sc(NC(=O)c4cccn4C)nc3[C@@H](C)[C@@H]2[C@H]1O (some centres not stated) | active: 5.01 µM | 
COc1ccc(N2C(=O)CSC23CCN(C(=O)Nc2ccccc2)CC3)cc1 | inconclusive: 44.7 µM [inhibitor, partial curve] | 
O=C1c2cnc(-c3cccc(CO)c3)nc2OCCN1c1ccccc1 | active: 3.16 µM | 
COc1ccc(Nc2cnc3ccc(-c4cccc(CO)c4)nn23)cc1OC | inconclusive: 56.2 µM [inhibitor, full curve] | 

SMILES | Potency | activity change, negative = inhibition
O=C1N(CC2CC2)CCOC12CCN([S+](=O)([O-])c1ccccc1)CC2 |  | inactive: -0.0293% [at 172 µM]
CC1(CCCCN2CCOCC2)COc2ccc(C(=O)Nc3cccc(Cl)c3)cc2N1 (configuration not stated) | inconclusive: 50.1 µM [inhibitor, partial curve] | 
CC1(C(=O)NCc2ccncc2)CCc2cnc(NCc3ccccc3)nc21 (configuration not stated) |  | inactive: 2.4% [at 172 µM]
COCCN1CCCCCC(O)c2cc(C(=O)NCc3ccc(N4CCC(C)CC4)cc3)ccc21 (configuration not stated) | inconclusive: 56.2 µM [inhibitor, partial curve] | 
Cc1ccc(CN2CC[C@H](c3nc4cc(C)ccc4o3)C2)cc1 | active: 44.7 µM | 
Cc1ccc(Cl)cc1NC(=O)Nc1cccc(-c2ccc(N3CCOCC3)nn2)c1 | active: 1 µM | 
COc1cc2cc(CN3CCC[C@H]3CO)c(-c3cccc(Cl)c3)nc2cc1OC | inconclusive: 44.7 µM [inhibitor, partial curve] | 
Cc1ccc(-c2noc([C@@H]3Cc4nc[nH]c4CN3C(=O)c3ccc(F)cc3)n2)cc1 | inconclusive: 79.4 µM [inhibitor, partial curve] | 
CC1(NC(=O)C2CC2)CN(Cc2nc(-c3ccccc3)cs2)C1 | active: 12.6 µM | 
Cc1ccc(NC(=O)C2CCN(C(=O)c3ncn4c3COC(c3ccc(F)cc3)C4)CC2)cc1Cl (configuration not stated) | active: 28.2 µM | 
CC(C)c1ccc(NC(=O)N2CCc3[nH]c4ccc(F)cc4c3C2)cc1 | inconclusive: 28.2 µM [inhibitor, partial curve] | 
Cn1cc(-c2ccc(Cl)cc2)cc1C(=O)O | inconclusive: 50.1 µM [inhibitor, partial curve] | 
CCCCNC(=O)[C@@H]1CCCC[C@@H]1C(=O)NCc1c(C)nn(CC)c1C | inconclusive: 70.8 µM [inhibitor, partial curve] | 
O=C(NC1CCCC1)C1CC(c2ccc(F)cc2)=NO1 (configuration not stated) | inconclusive: 50.1 µM [inhibitor, partial curve] | 
CS(=O)(=O)c1cnc(NCc2ncc[nH]2)nc1C1CCCNC1 (configuration not stated) |  | inactive: -7.31%
CCC(CC)NC(=O)C1CCN(C(=O)c2ncn3c2COC(c2ccc(F)cc2)C3)CC1 (configuration not stated) | inconclusive: 44.7 µM [inhibitor, partial curve] | 
Cc1nn(-c2cccc(Br)c2)c(C)c1[C@@H]1C=C[C@@H](NS(=O)(=O)c2ccccc2)C1 | inconclusive: 50.1 µM [inhibitor, partial curve] | 
CN(C)c1ccc(-c2nc(C3CCOC3)no2)cc1 (configuration not stated) | active: 3.98 µM | 
COc1ccc(-c2noc([C@@H]3C[C@H](NS(=O)(=O)c4ccc5ccccc5c4)CN3C)n2)cc1 |  | inactive: -8.01%
Cc1onc(-c2cnn(C)c2NCCc2ccccc2)c1C(=O)N1CCC(F)(F)CC1 |  | inactive: -1.55% [at 172 µM]
O=C(c1cc(COc2ccc3c(c2)OCO3)[nH]n1)N1CCCC1c1ccccn1 (configuration not stated) |  | inactive: 0%
